Measured values published in article PMC6465297.
No constants are given. Whether binding was seen depends on the method and setting. In cells and extracts the contact can be indirect. Some results given as binding are weak or reduced against the parent protein; the word gives no strength. Sequences can lack the tags named with a protein.

Chains of the proteins cited; added tags and fusions are not shown.
UniProt Q9BVV6: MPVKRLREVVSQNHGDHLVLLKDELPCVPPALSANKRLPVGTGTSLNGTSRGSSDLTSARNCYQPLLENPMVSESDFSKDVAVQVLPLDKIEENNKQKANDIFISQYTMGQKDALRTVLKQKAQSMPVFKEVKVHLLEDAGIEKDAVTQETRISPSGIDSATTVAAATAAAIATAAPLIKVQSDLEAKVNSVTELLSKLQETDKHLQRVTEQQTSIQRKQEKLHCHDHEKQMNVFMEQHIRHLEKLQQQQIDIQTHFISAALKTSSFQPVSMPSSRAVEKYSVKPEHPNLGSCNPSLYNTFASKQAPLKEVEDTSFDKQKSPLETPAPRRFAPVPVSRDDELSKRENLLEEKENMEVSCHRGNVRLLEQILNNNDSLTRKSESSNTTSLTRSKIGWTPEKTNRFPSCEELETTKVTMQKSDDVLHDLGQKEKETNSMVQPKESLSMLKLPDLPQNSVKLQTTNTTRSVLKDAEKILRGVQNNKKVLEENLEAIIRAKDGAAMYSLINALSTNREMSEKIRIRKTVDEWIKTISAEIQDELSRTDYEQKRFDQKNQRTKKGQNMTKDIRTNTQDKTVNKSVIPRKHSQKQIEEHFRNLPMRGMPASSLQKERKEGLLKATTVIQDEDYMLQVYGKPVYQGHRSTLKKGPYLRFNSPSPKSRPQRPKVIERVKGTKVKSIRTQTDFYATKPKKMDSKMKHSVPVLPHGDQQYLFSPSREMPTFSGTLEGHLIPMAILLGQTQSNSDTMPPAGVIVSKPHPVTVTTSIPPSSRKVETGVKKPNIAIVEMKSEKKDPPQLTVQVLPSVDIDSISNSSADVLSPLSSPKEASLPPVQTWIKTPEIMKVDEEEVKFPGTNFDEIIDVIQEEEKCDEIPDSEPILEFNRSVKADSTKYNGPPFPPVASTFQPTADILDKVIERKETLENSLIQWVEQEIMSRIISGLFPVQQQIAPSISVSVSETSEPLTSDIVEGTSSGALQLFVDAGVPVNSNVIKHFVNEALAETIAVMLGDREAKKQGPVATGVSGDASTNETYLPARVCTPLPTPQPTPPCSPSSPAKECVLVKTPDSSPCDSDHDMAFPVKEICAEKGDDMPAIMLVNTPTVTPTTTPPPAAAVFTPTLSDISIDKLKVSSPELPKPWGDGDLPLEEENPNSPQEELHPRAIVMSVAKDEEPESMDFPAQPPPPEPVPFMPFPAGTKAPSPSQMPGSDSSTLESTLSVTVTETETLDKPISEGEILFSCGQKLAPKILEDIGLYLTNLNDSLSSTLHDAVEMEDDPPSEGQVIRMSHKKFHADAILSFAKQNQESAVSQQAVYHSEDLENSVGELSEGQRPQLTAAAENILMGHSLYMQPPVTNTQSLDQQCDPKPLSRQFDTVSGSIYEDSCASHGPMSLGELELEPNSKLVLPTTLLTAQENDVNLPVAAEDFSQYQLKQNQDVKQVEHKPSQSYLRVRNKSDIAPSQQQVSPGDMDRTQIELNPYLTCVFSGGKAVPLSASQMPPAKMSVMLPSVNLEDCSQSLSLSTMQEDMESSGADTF
UniProt Q4AC94: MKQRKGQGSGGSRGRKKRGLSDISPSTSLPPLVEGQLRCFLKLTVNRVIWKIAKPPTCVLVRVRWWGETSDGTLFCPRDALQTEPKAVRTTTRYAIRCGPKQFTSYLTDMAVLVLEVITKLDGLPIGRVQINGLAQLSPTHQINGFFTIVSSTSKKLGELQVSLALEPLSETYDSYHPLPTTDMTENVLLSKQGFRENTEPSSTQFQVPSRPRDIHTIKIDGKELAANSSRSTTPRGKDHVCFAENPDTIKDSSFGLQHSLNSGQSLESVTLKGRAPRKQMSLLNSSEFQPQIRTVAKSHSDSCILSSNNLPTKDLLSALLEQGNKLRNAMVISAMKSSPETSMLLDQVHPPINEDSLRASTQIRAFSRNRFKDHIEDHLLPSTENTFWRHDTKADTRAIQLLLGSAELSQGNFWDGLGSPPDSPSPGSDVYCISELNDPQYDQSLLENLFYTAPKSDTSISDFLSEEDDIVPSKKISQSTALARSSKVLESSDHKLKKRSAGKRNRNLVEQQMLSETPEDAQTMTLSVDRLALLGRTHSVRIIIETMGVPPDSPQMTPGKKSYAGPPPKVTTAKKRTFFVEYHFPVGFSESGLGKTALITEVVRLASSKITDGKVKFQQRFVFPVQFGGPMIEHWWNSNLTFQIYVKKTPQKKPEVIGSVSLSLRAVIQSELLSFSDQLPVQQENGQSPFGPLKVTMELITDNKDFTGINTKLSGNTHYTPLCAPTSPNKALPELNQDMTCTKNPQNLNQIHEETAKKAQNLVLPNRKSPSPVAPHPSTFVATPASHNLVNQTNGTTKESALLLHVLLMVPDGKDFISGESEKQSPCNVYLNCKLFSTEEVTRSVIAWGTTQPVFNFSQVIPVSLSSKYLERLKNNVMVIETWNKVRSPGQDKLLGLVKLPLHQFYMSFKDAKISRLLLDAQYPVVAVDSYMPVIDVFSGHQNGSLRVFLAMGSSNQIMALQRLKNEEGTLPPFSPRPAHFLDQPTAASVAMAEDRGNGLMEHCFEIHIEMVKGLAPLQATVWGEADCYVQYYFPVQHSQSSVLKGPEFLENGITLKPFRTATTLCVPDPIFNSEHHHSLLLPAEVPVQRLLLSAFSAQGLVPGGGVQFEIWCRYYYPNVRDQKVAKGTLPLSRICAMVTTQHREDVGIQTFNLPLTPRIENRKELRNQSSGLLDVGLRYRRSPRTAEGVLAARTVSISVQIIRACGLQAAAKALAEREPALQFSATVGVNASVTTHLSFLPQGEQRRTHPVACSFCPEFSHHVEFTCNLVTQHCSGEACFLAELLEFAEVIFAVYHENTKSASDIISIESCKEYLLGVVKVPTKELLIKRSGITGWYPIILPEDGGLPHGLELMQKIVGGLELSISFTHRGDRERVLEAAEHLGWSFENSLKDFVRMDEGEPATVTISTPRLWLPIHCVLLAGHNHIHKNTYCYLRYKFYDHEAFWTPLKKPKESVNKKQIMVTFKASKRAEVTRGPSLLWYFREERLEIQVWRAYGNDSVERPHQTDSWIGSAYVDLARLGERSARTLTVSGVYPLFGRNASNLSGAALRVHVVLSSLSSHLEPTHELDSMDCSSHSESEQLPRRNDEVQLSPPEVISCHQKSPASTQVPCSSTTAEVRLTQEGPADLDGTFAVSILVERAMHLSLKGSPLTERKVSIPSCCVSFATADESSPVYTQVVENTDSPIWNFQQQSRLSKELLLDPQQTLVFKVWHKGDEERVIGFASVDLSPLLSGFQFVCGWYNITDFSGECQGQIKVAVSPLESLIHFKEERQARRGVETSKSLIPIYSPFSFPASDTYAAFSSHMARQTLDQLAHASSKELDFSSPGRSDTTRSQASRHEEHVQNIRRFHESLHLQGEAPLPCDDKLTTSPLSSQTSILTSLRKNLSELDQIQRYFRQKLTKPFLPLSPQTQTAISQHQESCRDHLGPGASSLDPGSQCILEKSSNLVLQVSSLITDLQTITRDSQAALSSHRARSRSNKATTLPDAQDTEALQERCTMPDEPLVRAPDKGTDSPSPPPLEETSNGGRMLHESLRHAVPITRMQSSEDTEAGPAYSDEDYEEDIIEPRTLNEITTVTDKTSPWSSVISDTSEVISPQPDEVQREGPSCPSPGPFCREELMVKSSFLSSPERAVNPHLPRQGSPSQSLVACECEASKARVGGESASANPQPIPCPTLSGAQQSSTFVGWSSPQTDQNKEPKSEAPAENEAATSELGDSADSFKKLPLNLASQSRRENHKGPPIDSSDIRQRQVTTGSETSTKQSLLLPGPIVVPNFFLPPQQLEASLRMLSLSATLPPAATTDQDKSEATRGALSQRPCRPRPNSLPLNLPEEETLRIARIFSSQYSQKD

Assays:
[1] = target: T1, GST-CEP120 (aa 416–894) (human) (UniProt Q8N960); experiment: pull-down; bead-bound GST or GST-CEP120 proteins incubated with in vitro translated ^35S-methionine-labeled protein in EBC buffer (50 mM Tris–HCl pH 8.0, 150 mM NaCl, 1% NP-40) without sodium deoxycholate; SDS-PAGE and autoradiography; only the target purified
T1 sequence: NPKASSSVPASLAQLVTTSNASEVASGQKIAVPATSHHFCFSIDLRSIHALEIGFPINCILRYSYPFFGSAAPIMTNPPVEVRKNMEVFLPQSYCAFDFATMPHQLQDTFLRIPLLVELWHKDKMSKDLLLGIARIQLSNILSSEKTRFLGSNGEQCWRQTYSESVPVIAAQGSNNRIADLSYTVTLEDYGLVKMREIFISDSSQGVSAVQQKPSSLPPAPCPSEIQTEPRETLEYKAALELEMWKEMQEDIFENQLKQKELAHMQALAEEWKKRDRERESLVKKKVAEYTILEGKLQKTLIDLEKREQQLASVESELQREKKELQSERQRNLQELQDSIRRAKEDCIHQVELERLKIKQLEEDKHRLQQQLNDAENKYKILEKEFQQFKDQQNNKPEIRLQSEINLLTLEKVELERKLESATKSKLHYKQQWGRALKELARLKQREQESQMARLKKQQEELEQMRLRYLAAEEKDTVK

[2] = target: T1, GST-CEP120 (aa 416–894) (human); experiment: condition: only with 0.5% sodium deoxycholate (SDC) in the reaction buffer; pull-down; bead-bound GST-CEP120 proteins incubated with in vitro translated ^35S-methionine-labeled protein in EBC buffer (50 mM Tris–HCl pH 8.0, 150 mM NaCl, 1% NP-40) with 0.5% sodium deoxycholate (SDC); SDS-PAGE and autoradiography; only the target purified
[3] = target: T2, GST-CEP120 (aa 1–441) (human) (UniProt Q8N960); experiment: pull-down; bead-bound GST or GST-CEP120 proteins incubated with in vitro translated ^35S-methionine-labeled protein in EBC buffer (50 mM Tris–HCl pH 8.0, 150 mM NaCl, 1% NP-40) without sodium deoxycholate; SDS-PAGE and autoradiography; only the target purified
T2 sequence: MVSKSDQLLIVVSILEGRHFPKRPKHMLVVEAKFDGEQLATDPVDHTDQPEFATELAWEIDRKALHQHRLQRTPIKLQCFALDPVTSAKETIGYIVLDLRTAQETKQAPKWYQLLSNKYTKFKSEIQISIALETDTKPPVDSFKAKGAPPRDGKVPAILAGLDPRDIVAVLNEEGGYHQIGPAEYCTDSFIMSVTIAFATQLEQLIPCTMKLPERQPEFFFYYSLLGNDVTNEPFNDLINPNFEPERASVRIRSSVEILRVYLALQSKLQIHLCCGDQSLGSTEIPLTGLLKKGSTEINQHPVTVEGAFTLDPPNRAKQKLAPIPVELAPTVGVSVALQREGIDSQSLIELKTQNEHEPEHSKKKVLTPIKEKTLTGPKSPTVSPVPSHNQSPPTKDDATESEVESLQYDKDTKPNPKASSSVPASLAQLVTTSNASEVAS

[4] = target: T3, GST-CEP120 (aa 792–986) (human) (UniProt Q8N960); experiment: as above
T3 sequence: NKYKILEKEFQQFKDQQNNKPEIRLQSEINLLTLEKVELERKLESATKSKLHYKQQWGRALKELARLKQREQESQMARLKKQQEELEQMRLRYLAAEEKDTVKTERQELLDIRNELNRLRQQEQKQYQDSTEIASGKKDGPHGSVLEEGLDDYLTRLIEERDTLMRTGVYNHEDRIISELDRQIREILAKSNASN

[5] = target: T3, GST-CEP120 (aa 792–986) (human); experiment: pull-down; bead-bound GST-CEP120 proteins incubated with in vitro translated ^35S-methionine-labeled protein in EBC buffer (50 mM Tris–HCl pH 8.0, 150 mM NaCl, 1% NP-40) with 0.5% sodium deoxycholate (SDC); SDS-PAGE and autoradiography; only the target purified

binding [1] | binding [2] | binding [3] | binding [4] | binding [5] | Substance
binds | no binding |  |  |  | ^35S-methionine-labeled full-length Talpid3 (from UniProt Q9BVV6 1-1533)
binds weakly |  | no binding | binds | binds | in vitro-translated ^35S-methionine-labeled full-length C2CD3 (from UniProt Q4AC94 1-2353)
